Some of the results follow. The energies were worked out here from pooled read counts, against the library average; single values are noisy.
The sequences below were run against T1, Pho4 (S. cerevisiae) (UniProt P07270) (assay: relative binding free energy (BET-seq); higher = weaker binding). Conditions: reference: library average.
T1 sequence: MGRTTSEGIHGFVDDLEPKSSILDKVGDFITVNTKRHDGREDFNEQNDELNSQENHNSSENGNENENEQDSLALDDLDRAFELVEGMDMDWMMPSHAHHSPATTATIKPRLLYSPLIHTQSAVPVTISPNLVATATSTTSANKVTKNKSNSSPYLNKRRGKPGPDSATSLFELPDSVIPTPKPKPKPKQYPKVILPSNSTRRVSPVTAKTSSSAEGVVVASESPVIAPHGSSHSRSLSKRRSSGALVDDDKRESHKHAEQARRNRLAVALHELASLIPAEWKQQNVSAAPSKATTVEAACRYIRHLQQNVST

| Sequence | relative binding free energy [kcal/mol] |
| --- | --- |
| CGGGGCACGTGGCGAG | -0.2 |
| GGTGCCACGTGTTGCG | -0.1 |
| CTTTACACGTGTATGG | 0.2 |
| CGGGTCACGTGTGAGT | 0.22 |
| TGGGACACGTGGTCAG | -0.15 |
| AGATGCACGTGTAATG | 0.08 |
| GGAGTCACGTGCTGTG | 0.1 |
| GTTCACACGTGGAGGT | 0.19 |
| CGTCTCACGTGTTGGG | 0.18 |
| GGGCGCACGTGTTTCG | -0.1 |
| GGTCTCACGTGTGATG | 0.25 |
| ATACGCACGTGTTAGG | -0.16 |
| TCCTGCACGTGGAGTT | 0.05 |
| AGTGGCACGTGTAAGG | 0.01 |
| ATGGACACGTGGCTAG | 0.03 |
| GCTTGCACGTGTTGCG | 0.07 |
| AGGAACACGTGGTGGC | -0.07 |
| CTATACACGTGTGGTG | -0.05 |
| GCGGACACGTGGTGGG | 0.05 |
| TTTACCACGTGGGTTT | -0.12 |
| TTTGTCACGTGCTTTC | 0.05 |
| TAATTCACGTGGAGGT | 0.28 |
| AGGTTCACGTGTGCCT | 0.22 |
| AGTTGCACGTGTTGGC | 0.09 |
| GAAGCCACGTGGTGTG | -0.06 |

| Sequence | relative binding free energy [kcal/mol] |
| --- | --- |
| CGGTACACGTGCGTGT | 0.08 |
| TGATACACGTGGTTGC | 0.08 |
| TGTGGCACGTGCTGTA | -0.22 |
| GAGGTCACGTGAGTAA | 0.38 |
| ATTGTCACGTGTCTTT | 0.19 |
| GGTTACACGTGAGCTG | 0.35 |
| CTTTGCACGTGTGGTC | -0.08 |
| AGAGTCACGTGGAGGT | 0.11 |
| GATGGCACGTGAGTAG | 0.19 |
| ATAGCCACGTGGTGCG | -0.16 |
| TGGACCACGTGTTGGA | -0.09 |
| CATGTCACGTGATTAG | 0.37 |
| ATGTGCACGTGGAGGT | -0.06 |
| GCGGACACGTGTTGGT | 0.02 |
| TCTGGCACGTGGTGTT | -0.13 |
| TGACGCACGTGTGATG | -0.04 |
| CGTTTCACGTGCGCGG | 0.12 |
| TGTGACACGTGGGCAG | -0.36 |
| TAGGTCACGTGTCTTT | 0.15 |
| TGGTACACGTGTTAAT | 0.03 |
| TTTTTCACGTGTATAT | 0.21 |
| GTTCACACGTGGGTCG | -0.03 |
| GTCGTCACGTGTATGG | 0.24 |
| ACGAACACGTGTGGGT | 0.14 |
| ATTTACACGTGGCTGG | -0.06 |

| Sequence | relative binding free energy [kcal/mol] |
| --- | --- |
| AGAGTCACGTGGGTTC | -0.12 |
| GTGTTCACGTGTGTGC | 0.26 |
| GTATTCACGTGAGTGT | 0.45 |
| TGTATCACGTGGAGAG | 0.14 |
| TATATCACGTGTTGGA | 0.26 |
| TTTGTCACGTGGTTTC | 0.09 |
| AATGTCACGTGAGATA | 0.3 |
| TAGTTCACGTGGTAAT | 0.33 |
| TAGCGCACGTGCGGTT | -0.14 |
| CGTGACACGTGGTCGT | -0.11 |
| TTCTACACGTGTTATA | 0.02 |
| TATCACACGTGTAGTG | 0 |
| TGCTTCACGTGGAATT | 0.35 |
| TGAGTCACGTGTGTCG | 0.07 |
| ATTTTCACGTGAAGGC | 0.34 |
| AGAGTCACGTGTTCTG | 0.25 |
| GGCGGCACGTGAATGG | 0.29 |
| CGTGGCACGTGCAGTG | -0.27 |
| GGTTGCACGTGAAGCG | 0.26 |
| AGTATCACGTGCTGGT | 0.18 |
| TTGATCACGTGGGGCG | 0.06 |
| GGAGTCACGTGGTTAG | 0.12 |
| TAGTGCACGTGGCAGA | -0.08 |
| AATCGCACGTGGAGTG | 0 |
| TGGTACACGTGAAGGT | 0.34 |

| Sequence | relative binding free energy [kcal/mol] |
| --- | --- |
| TGTCTCACGTGATGGC | 0.15 |
| TTGGTCACGTGGTACA | -0.05 |
| GATTACACGTGGGCAG | 0.15 |
| GGATTCACGTGCGGGT | 0.31 |
| AGCGGCACGTGGGGAC | -0.07 |
| ATTTGCACGTGTCTAG | 0.02 |
| GGGGTCACGTGTAGCG | 0.13 |
| AAGGACACGTGCGGTT | 0 |
| TAATACACGTGGTTTA | -0.01 |
| TTGAGCACGTGTCGTG | -0.09 |
| GTTATCACGTGGACTA | 0.28 |
| GTCGGCACGTGGGTGC | -0.17 |
| GGTTTCACGTGCGATG | 0.23 |
| ATTCTCACGTGCTGGG | 0.22 |
| AGTTCCACGTGAGTGT | 0.2 |
| GCAAGCACGTGTGGTG | -0.07 |
| GGTTGCACGTGGGGTC | -0.06 |
| TTTCTCACGTGGGAGG | 0.27 |
| TTATGCACGTGTTTAG | -0.11 |
| AGAAGCACGTGGGGGC | -0.24 |
| AGGTGCACGTGGGCTT | -0.12 |
| TTGGCCACGTGTGGCT | -0.04 |
| TTTTACACGTGTAAGC | 0.32 |
| ATGTTCACGTGAGGCA | 0.25 |
| ACGGGCACGTGGGTTC | -0.29 |

| Sequence | relative binding free energy [kcal/mol] |
| --- | --- |
| AGATGCACGTGGGTTT | -0.14 |
| GTGTGCACGTGATCGT | 0.05 |
| CGGGGCACGTGTTGGC | 0.08 |
| CGGTTCACGTGAAAGG | 0.22 |
| TGTCTCACGTGGAAGG | 0.19 |
| GTGGTCACGTGACGCG | 0.14 |
| CGGGGCACGTGGCATG | -0.23 |
| TTTAGCACGTGAAGTT | 0.23 |
| GAGTACACGTGGAGTT | 0.18 |
| TTTTACACGTGTAGTA | 0.23 |
| GAGCTCACGTGTATGT | 0.29 |
| CGCTTCACGTGTAGGT | 0.38 |
| TTGTACACGTGCAGTT | 0.26 |
| TGTGCCACGTGTGCGG | -0.12 |
| AGGGTCACGTGTGACT | 0.15 |
| TCTTGCACGTGGTGGC | -0.02 |
| ATAGACACGTGTGGGA | -0.03 |
| GTCACCACGTGGGTGT | -0.13 |
| GTGGTCACGTGCAATG | 0.13 |
| GAGCGCACGTGCGGGT | -0.1 |
| GGAGGCACGTGGGAGC | -0.22 |
| AACGACACGTGGGGGT | -0.16 |
| AAATTCACGTGAAGTT | 0.5 |
| GGAGACACGTGTCGGT | -0.05 |
| CTTGGCACGTGGGCTT | -0.23 |

| Sequence | relative binding free energy [kcal/mol] |
| --- | --- |
| TGTATCACGTGTAGCG | 0.18 |
| GACGGCACGTGTGGGT | 0 |
| GTGTTCACGTGTATAG | 0.23 |
| AGTTGCACGTGAAGTG | 0.18 |
| TAGTGCACGTGCTTTT | 0.03 |
| GAAATCACGTGAGGCA | 0.61 |
| TGTAGCACGTGGCCGT | -0.2 |
| GAGTTCACGTGGTTAG | 0.24 |
| TAGTCCACGTGTTTAT | 0.04 |
| GCGAACACGTGGGGGT | -0.13 |
| AGGGACACGTGCGTGA | -0.06 |
| GCGATCACGTGGGGTT | 0 |
| TGTCACACGTGTTGTA | 0.12 |
| TTGTTCACGTGTGCTG | 0.27 |
| ATGGGCACGTGGAGCT | -0.14 |
| GATGTCACGTGTGGCT | 0.17 |
| CTCGGCACGTGGCGGT | -0.04 |
| GATTGCACGTGGGAAT | 0.03 |
| TGGTTCACGTGCGACG | 0.33 |
| ATTTGCACGTGGACTT | -0.11 |
| ATTTCCACGTGAGGTT | 0.2 |
